Assay results from PubChem BioAssay AID2073 (Sanford-Burnham Center for Chemical Genomics, 2009).
The list shows a part of the results. These are further read-outs of the screen, such as a control signal, another cell line or another target. No call is given for them.

biological target: Voltage-dependent N-type calcium channel subunit alpha-1B (Homo sapiens) (UniProt Q00975); experiment: inhibitors of Mint1-CaV2.2 protein interaction, biochemical, HTRF (AID 2073); details: measured here: average of repeat tests, at 20 µM, stronger effect = higher value
UniProt Q00975, sequence (Q00975 whole entry, looked up): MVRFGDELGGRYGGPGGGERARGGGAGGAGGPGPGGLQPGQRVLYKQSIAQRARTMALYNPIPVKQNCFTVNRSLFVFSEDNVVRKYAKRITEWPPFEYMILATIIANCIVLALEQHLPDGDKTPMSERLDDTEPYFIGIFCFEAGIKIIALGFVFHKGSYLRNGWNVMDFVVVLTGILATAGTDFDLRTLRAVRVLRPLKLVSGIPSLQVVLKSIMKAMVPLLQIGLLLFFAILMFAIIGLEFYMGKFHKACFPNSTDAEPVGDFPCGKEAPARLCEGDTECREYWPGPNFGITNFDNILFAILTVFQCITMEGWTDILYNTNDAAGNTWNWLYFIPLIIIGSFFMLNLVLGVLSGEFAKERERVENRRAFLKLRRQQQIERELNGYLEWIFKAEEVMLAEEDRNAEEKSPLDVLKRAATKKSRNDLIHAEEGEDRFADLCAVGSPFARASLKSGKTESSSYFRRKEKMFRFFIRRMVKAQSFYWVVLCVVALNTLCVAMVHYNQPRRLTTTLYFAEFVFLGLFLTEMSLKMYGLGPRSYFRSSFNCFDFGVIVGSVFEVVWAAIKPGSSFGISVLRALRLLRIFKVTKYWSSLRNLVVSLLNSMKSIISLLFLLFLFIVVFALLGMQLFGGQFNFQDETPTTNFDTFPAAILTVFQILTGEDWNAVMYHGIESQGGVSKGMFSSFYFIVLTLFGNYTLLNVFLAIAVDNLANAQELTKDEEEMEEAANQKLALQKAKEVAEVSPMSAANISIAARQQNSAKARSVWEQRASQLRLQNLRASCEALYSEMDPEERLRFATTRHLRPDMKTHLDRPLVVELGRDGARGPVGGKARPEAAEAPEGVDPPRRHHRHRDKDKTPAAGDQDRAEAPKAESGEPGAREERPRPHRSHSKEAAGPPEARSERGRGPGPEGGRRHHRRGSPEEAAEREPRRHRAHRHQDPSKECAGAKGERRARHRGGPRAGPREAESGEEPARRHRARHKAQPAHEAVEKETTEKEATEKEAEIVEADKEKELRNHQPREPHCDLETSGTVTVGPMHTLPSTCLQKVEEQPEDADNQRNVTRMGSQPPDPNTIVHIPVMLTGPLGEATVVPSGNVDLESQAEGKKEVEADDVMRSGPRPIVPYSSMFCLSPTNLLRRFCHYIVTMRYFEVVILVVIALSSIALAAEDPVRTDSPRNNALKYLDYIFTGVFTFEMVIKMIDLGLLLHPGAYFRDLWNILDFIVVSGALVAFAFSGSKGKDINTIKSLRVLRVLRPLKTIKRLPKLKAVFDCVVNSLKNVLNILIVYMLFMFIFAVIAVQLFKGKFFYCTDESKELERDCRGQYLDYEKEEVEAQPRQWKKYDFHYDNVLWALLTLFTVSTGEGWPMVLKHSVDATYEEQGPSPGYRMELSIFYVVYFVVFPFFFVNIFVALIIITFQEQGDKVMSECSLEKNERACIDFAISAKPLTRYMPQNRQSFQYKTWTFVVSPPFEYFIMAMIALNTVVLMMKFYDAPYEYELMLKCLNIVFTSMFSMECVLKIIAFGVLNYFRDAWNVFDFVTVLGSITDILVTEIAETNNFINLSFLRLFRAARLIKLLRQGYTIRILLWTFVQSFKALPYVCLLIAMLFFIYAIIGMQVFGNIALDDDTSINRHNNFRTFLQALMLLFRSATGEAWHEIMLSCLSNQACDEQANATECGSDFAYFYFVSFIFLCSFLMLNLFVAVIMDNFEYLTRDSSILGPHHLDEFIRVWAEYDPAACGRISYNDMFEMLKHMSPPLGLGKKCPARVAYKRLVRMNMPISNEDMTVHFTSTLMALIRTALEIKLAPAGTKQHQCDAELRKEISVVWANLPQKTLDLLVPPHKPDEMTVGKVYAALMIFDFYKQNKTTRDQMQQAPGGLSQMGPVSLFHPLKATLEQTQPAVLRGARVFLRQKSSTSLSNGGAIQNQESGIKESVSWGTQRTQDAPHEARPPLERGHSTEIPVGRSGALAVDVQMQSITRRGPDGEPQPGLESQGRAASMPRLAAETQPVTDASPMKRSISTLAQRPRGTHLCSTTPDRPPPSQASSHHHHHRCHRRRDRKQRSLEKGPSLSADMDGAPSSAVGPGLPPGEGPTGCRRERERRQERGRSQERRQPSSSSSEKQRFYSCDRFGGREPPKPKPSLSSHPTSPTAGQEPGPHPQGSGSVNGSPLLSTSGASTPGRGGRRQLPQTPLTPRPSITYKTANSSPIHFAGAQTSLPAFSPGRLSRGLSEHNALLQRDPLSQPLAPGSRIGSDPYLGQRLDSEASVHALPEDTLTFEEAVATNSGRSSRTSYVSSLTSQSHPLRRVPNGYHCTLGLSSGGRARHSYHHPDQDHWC

Compound	inhibition
Cc1c(C)c2c(OCC(=O)Nc3cccnc3)cc3c(c2oc1=O)CCC(C)(C)O3	60.3%
Cc1cccn2c(=O)c(/C=N/O)c(Nc3ccccc3F)nc12	50.3%
CCOC(=O)c1cc(-c2ccc(F)cc2)nc2c1c(=O)[nH]c(=O)n2Cc1ccccc1	46.7%
CCOc1ccc(C(=O)Nc2ccc(-c3nc4ccccc4[nH]3)cc2)cc1[N+](=O)[O-]	60.5%
COc1ccc(-c2csc(NC(=O)CSc3nc(C)nc4sc(C(=O)O)c(C)c34)n2)cc1	92.4%
N#C/C(C(=O)Nc1ccc(Cl)cc1)=C(/S)Nc1ccccc1	83.2%
NS(=O)(=O)c1ccc(NC(=O)c2ccc(-c3ccccc3)cc2)cc1	53.9%
N#Cc1nccnc1S(=O)(=O)c1cccs1	54.8%
COc1cc2c(cc1OC)-c1cc(Nc3ccc(C(=O)O)cc3)nc(=O)n1CC2	70.1%
O=C(CSc1nc2ccccc2n1CCc1ccccc1)c1ccc(O)c(O)c1	59%
C=C(C)C(=O)Nc1cccc(C2=NOC3(C2)C[C@@H](C(N)=O)N(C(=O)/C=C/C=C/C)C3)c1 (some centres not stated)	83.3%
Cc1ccc(-c2nn(-c3ccccc3)cc2/C=C/C(=O)O)o1	36.6%
Oc1cccc2cc3cccc(O)c3c(O)c12	54.3%
COc1ccc2cc(N=Cc3nc(-c4ccc(C)cc4)oc3O)cnc2c1	59.4%
COc1ccc(-n2c(O)c(/C=C3\C=Nc4ccccc43)c(=O)[nH]c2=O)cc1	65.8%
O=C(O)c1cc(-c2ccco2)nn1-c1ccc(Cl)cc1	48.4%
CCCCc1ccc(/C=C2\C(=O)c3ccccc3C(O)=C2C(=O)OCC)cc1	50.7%
N#Cc1c(Nc2ccccc2Cl)s[nH]c1=O	68.6%
Cc1cc(C)cc(-n2c3nc4ccccc4nc3c3c(=O)n(Cc4ccco4)cnc32)c1	44.3%
CC(=O)Nc1ccc(NC(=O)c2cc(-c3ccc(C)c(C)c3O)n[nH]2)cc1	36.8%
CC(C)c1ccc(/C=C2\SC(=O)N(CC(=O)NC3CCS(=O)(=O)C3)C2=O)cc1 (configuration not stated)	53.4%
CCN1C(=O)N/C(=C/c2ccc(C)o2)C1=O	56%
COC(=O)c1ccc(COc2ccc(/C=N/Nc3nc(C)cc(=O)[nH]3)cc2)cc1	32.3%

Compound	inhibition
COc1cccc(/C=N/Nc2nn3cnnc3c3ccccc23)c1O	57.9%
O=C(N/N=C/c1ccc([N+](=O)[O-])o1)c1cn2ccc3ccccc3c2n1	55.9%
O=C1C=C(c2ccccc2)C(=O)N1Nc1ccccc1	65.1%
COc1ccc(C(=O)Nc2cccc(/C=C(\CCC(=O)O)c3nc4ccccc4s3)c2)cc1	52.4%
COc1cc(N=c2ssnc2Cl)cc(OC)c1OC	62%
COc1cc(NC(=O)c2cccs2)ccc1NC(=O)c1cc2ccccc2o1	55.1%
CCN(CC)Cc1cc(O)c(CN(CC)CC)cc1O	64.7%
N#C/C(=C/c1ccc(N2CCCCCC2)o1)c1ccc(Cl)cc1	44.1%
NS(=O)(=O)c1ccc(CCNC(=O)/C=C/c2ccc([N+](=O)[O-])cc2)cc1	44.2%
C=C(C)C(=O)Nc1cccc(C2=NOC3(C2)C[C@@H](C(N)=O)N(C(=O)C2(C)CC2)C3)c1 (some centres not stated)	52.1%
NS(=O)(=O)c1ccc(CCNC(=O)CCS(=O)(=O)c2ccc(Br)cc2)cc1	61.9%
CCSc1nnc(-c2sc3nnc(-c4ccccc4)c(-c4ccccc4)c3c2N)o1	63%
CC(=O)Nc1ccc(C2=NNC(=Nc3cccc(S(=O)(=O)N(C)C)c3)SC2)cc1	43.9%
NC(=S)n1[nH]c(-c2ccc([N+](=O)[O-])cc2)c(N=Nc2cccc([N+](=O)[O-])c2)c1=O	51.8%
NS(=O)(=O)c1ccc(CNC(=O)Cc2cccs2)cc1	60.4%
C=CCOc1ccc(/C=C2\SC(=S)N(N3CCOCC3)C2=O)cc1	71.7%
COc1cc(N=c2ssnc2Cl)cc(OC)c1	69.9%
Cc1ccnc(NC(=S)N2CCN(c3cccc(C(F)(F)F)c3)CC2)c1	85.4%
CC(/C=C/c1ccco1)=N\NC(=O)c1cc(C)[nH]n1	51.2%
COc1ccc(NC(=O)c2cc3ccc4c5ccccc5[nH]c4c3cc2O)cc1	62.3%
CC(=O)Nc1ccc(C2=NNC(=Nc3ccc(S(=O)(=O)N4CCOCC4)cc3)SC2)cc1	63.2%
Cc1cc(C(=O)O)ccc1-c1ccc(/C=C2\SC(=O)N(CC(=O)Nc3ccc4c(c3)OCO4)C2=O)o1	87.2%
CCC1=NNc2cccc3c(OC)ccc1c23	43.5%

Compound	inhibition
CC(=O)c1ccc(NC(=O)CSc2ccsc2[N+](=O)[O-])cc1	47.9%
CCCC(C(=O)NC1CCCC1)N(C(=O)Cn1nnc(-c2ccc(C)o2)n1)C1CCCC1 (configuration not stated)	47.1%
C=CCOC(=O)/C=C/C(=O)NC(N)=O	48.1%
COc1cc(N2C(=O)C=CC2=O)c(OC)cc1Cl	65.4%
CCCCn1c(=O)[nH]c2nc3cc(N)ccc3nc2c1=O	48.2%
O=C(O)Cc1sc(Nc2ccc(F)cc2)nc1-c1cccs1	65%
CCN(C(=O)CN1C(=O)S/C(=C\C=C\c2ccccc2)C1=O)C1CCS(=O)(=O)C1 (configuration not stated)	44.3%
CCOC(=O)Cn1c2ccc(OC)cc2c2nc3ccccc3nc21	52.1%
Cc1ccc(/C=C/C(=O)N2CCN(c3ncccn3)CC2)o1	50%
O=C1c2cccc3c(O)ccc(c23)C(=O)N1Cc1ccco1	51.9%
O=C(Nc1ccc2oc(-c3cccc4ccccc34)nc2c1)c1ncn[nH]1	52%
O=C(O)c1cccc(-n2cccc2/C=C2/NC(=O)N(c3ccc(Cl)cc3)C2=O)c1	94.7%
CN1C(=O)C(Cl)(Cl)C(=O)c2ccccc21	92.8%
Cc1cc(Cl)ccc1N=c1ssnc1Cl	75.2%
CC(=O)Oc1ccc(N2C(=O)C3C(C2=O)C2(C)C=CC3(C)O2)cc1 (configuration not stated)	66.3%
COC(=O)c1cc(NC(=O)c2ccccc2)c(=O)oc1/C=C/Nc1ccc(Oc2ccccc2)cc1	33.4%
COc1ccc(C(=O)NC(=S)Nc2ccc(NC(=O)c3ccco3)cc2)cc1[N+](=O)[O-]	68.1%
COc1ccc(CC(=O)Nc2ccc(-c3nnc(-c4ccc(C)cc4)o3)cc2)cc1	47.7%
Cc1ccc(-c2cc(C(=O)N3CC(C)CC(C)C3)c3ccccc3n2)o1 (configuration not stated)	41.4%
Cc1nc2sc(C(=O)OC(C)C)c(N)c2c(C)c1C	56%
CCOc1cc(/C=C(\C#N)C(=O)Nc2cccc(C(=O)O)c2)ccc1OCc1ccc(Br)cc1	84%
